Assay results published in the supplement of paper PMC12217912.
This is one part of the list. The full chains were built here from the parent and the listed change. Values near 0.05 are background.

B1: TEV protease; numbered along this chain (parent)
chain: MGESLFKGPRDYNPISSSICHLTNESDGHTTSLYGIGFGPFIITNKHLFRRNNGTLVVQSLHGVFKVKDTTTLQQHLVDGRDMIIIRMPKDFPPFPQKLKFREPQREERICLVTTNFQTKSMSSMVSDTSCTFPSGDGIFWKHWIQTKDGQCGSPLVSTRDGFIVGIHSASNFTNTNNYFTSVPKNFMELLTNQEAQQWVSGWRLNADSVLWGGHKVFMVKPEEPFQPVKEATQL

Variants of: B1
Assay: raw area under fraction-flipped curve 0-4 h after induction (AUC4h, not background-subtracted), DNA-recorder readout of cleavage of the substrate (dimensionless); higher = more cleavage of the substrate by the protease variant
Settings: temperature: 34 °C; time window: 0-4 h after rhamnose induction
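Further: Bxb1 expression induced with 0.2% (w/v) L-rhamnose at OD600 near 0.5, cultures sampled hourly, flipped fraction per protease–substrate barcode pair counted by paired-end Illumina sequencing.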

Variant | area with substrate ENLYDQS | area with substrate ENLYEQS | area with substrate ENLYHQS | area with substrate ENLYIQS | area with substrate ENLYKQS | area with substrate ENLYLQS | area with substrate ENLYMQS | area with substrate ENLYNQS | area with substrate ENLYPQS | area with substrate ENLYRQS | area with substrate ENLYTQS | area with substrate ENLYVQS | area with substrate ENLYWQS | area with substrate ENLYYQS | area with substrate ENLYGQS | area with substrate ENLYQQS | area with substrate ENLYSQS
MGESLFKGPRDYNPISSSICHLTNESDGMTTSLYGIGFGPFIITNKHLFRRNNGTLVVQSLHGVFKVKDTTTLQQHLVDGRDMIIIRMPKDFPPFPQKLKFREPQREERICLVTTNFQTKSMSSMVSDTSCTFPSGDGIFWKHWIQTKDGQCGSPLVSTRDGFIVGIHSASNFTNTNNYFTSVPKNFMELLTNQEAQQWVSGWRLNADSVLWGGHKVFMVKPEEPFQPVKEATQL [H29M] | 0.0617 | 0.0726 | 0.061 | 0.143 | 0.0507 | 0.119 | 0.106 | 0.0635 | 0.076 | 0.0654 | 0.0748 | 0.188 | 0.0983 | 0.0594 |  |  | 
MGESLFKGPRDYNPISSSICHLTNESDGHTTSLYGIGFGPFIITNKHLFRRNNGTLVVQSLHGVFKVKDTTTLQQHLVDGRDMIIIRMPKDFPPFPQKLKFREPQREERICLVTTNFQTKSMSSMVSDTSCTFPSGDGIFWKHWIQTKDGQCGSPLVSTRDGFIVGIHSASNFTNTNNYFTSVPKNFMELLTNQEAQQWVSRWRLNADSVLWGGHKVFMVKPEEPFQPVKEATQL [G202R] | 0.0737 |  | 0.0713 |  | 0.0725 |  | 0.0632 | 0.0596 |  |  |  | 0.0753 | 0.0495 |  | 0.0211 | 0.0554 | 0.0583
MGESLFKGPRDYNPISSSICHLTNESDGHTTSLYGIGFGPFIITNKHLFRRNNWTLVVQSLHGVFKVKDTTTLQQHLVDGRDMIIIRMPKDFPPFPQKLKFREPQREERICLVTTNFQTKSMSSMVSDTSCTFPSGDGIFWKHWIQTKDGQCGSPLVSTRDGFIVGIHSASNFTNTNNYFTSVPKNFMELLTNQEAQQWVSGWRLNADSVLWGGHKVFMVKPEEPFQPVKEATQL [G54W] | 0.057 | 0.0498 | 0.0537 |  | 0.0608 |  |  | 0.0573 |  | 0.0582 | 0.0521 | 0.0681 | 0.0537 | 0.0467 |  | 0.0613 | 
MGESLFKGPRDYNPISSSICHLTNESDGHTTSLYGIGFGPFIITNKHLFRRNNGTLVVQSLHGVFKVKDTTTLQQHLVDGRDMIIIRMPKDFPPFPQKLKFREPQREERICLVTTNFQTKSMSSMVSDTSCTFPSGDGIFWKHWIQTKDGQCGSPLVSTRDGFIVGIHSASNFTNTNNYFTSVPKNFMELLTNQEAQQWVSGWRLNTDSVLWGGHKVFMVKPEEPFQPVKEATQL [A207T] | 0.0615 | 0.0617 | 0.0733 | 0.124 | 0.0774 |  | 0.0986 | 0.0649 | 0.0963 | 0.0493 | 0.0782 |  | 0.0746 |  | 0.0669 | 0.0667 | 0.0792
MGESLFKGPRDYNPISSSICHLTNESDGHTTSLYGIGFGPFIITNKHLFRRNNGTLVVQSLHGVFKVKDTTTLQQHLVDGRDMIIIRMPKDFPPFPQKLKFREPQREERICLVTTNFQTKSMSSMVSDTSCTFPSGDGIFWKHWIQTKDGQCGSPLVSTRDGFIVGIHSASNFTNTNNRFTSVPKNFMELLTNQEAQQWVSGWRLNADSVLWGGHKVFMVKPEEPFQPVKEATQL [Y179R] | 0.0587 | 0.0525 | 0.0385 |  | 0.0516 |  | 0.0567 | 0.0536 | 0.0644 | 0.0634 |  | 0.0495 | 0.0673 | 0.0299 | 0.073 | 0.0597 | 0.0481
MGESLFKGPRDYNPISSSICHLTNESDGHTTSLYGIGFGPFIITNKHLFRRNNGTLVVQSLHGVFKVKDTTTLQQHLVDGRDMIIIRMPKDFPPFPQKLKFREPQREERICLVTTNFQTKSMSSMVSDTSCTFPSGDGILWKHWIQTKDGQCGSPLVSTRDGFIVGIHSASNFTNTNNYFTSVPKNFMELLTNQEAQQWVSGWRLNADSVLWGGHKVFMVKPEEPFQPVKEATQL [F140L] | 0.0554 | 0.0621 | 0.0559 | 0.0849 | 0.063 |  | 0.0821 |  |  | 0.0625 | 0.0793 | 0.0962 | 0.065 |  | 0.0548 |  | 
MGESLFKGPRDYNPISSSICHLTNESDGHTTSLYGIGFGPFIITNKHLFRRNNGTLVVQSLHGVFKVKDTTTLQQHLVDGRDMIIIRMPKDFPPFPQKLKFREPQREERICLVTTNFQTKSMSSMVSDTSCTFPSGDGIFWKHWIQTKDGQCGSPLVSTRDGFIVGIHSASNFTNTNNYFTSVPKNFMELLTNQEAQQWVSGWRLNADSVLWGGHKVNMVKPEEPFQPVKEATQL [F218N] | 0.0649 | 0.0584 | 0.0701 | 0.0936 |  |  |  |  | 0.077 | 0.0699 |  | 0.0915 | 0.0628 |  |  | 0.0585 | 
MGESLFKGPRDYNPISSSICHLTNESDGHTTSLYGIGFGPFIITNKHLFRRNNGTLVVQSLHGVFKVKDTTTLQQHLVDGRDMIIIRMPKDFPPFPQKLKFREPQREERICLVTTNFQTKSMSSMVSDTSCTFPSGDGIFWKHWIQTKDGQCGSPLVSTRDGFIVGIHSASNFTNTCNYFTSVPKNFMELLTNQEAQQWVSGWRLNADSVLWGGHKVFMVKPEEPFQPVKEATQL [N177C] | 0.0752 | 0.0696 | 0.0728 | 0.128 |  |  |  | 0.0697 | 0.131 |  |  | 0.131 |  | 0.0421 | 0.0744 |  | 0.0799
MGESLFKGPRDYNPISSSICHLTNESDGHTTSLYGIGFGPFIITNKHLFRRNNGTLVVQSLHGVFKVKDTTTLQQHLVDGRDMIIIRMPKDFPPFPQKLKFREPQREERICLVTTNFQTKSMSSMVSDTSCTFPSGDGIFWKHWIQTKDGQCGSPLVSTRDGFIVGIHSYSNFTNTNNYFTSVPKNFMELLTNQEAQQWVSGWRLNADSVLWGGHKVFMVKPEEPFQPVKEATQL [A170Y] | 0.0654 | 0.0534 | 0.0721 |  | 0.0621 |  |  | 0.0628 | 0.0603 |  |  | 0.058 | 0.0561 | 0.0352 | 0.0526 | 0.0732 | 
MGESLFKGPRDYNPISSSICHLTNESDGHTTSLYGIGFGPFIITNKHLFRRNNGTLVVQSLHTVFKVKDTTTLQQHLVDGRDMIIIRMPKDFPPFPQKLKFREPQREERICLVTTNFQTKSMSSMVSDTSCTFPSGDGIFWKHWIQTKDGQCGSPLVSTRDGFIVGIHSASNFTNTNNYFTSVPKNFMELLTNQEAQQWVSGWRLNADSVLWGGHKVFMVKPEEPFQPVKEATQL [G63T] | 0.0526 | 0.0646 | 0.0762 |  | 0.0584 | 0.0913 | 0.0809 | 0.058 | 0.0944 | 0.0598 |  | 0.127 | 0.0725 |  | 0.0495 | 0.0569 | 
